Results taken from PubChem BioAssay AID1508642 (National Center for Advancing Translational Sciences (NCATS), 2021).
Screen size: about 43,000 compounds; about 200 (0.47%) were called active. Another 12% or so got no clear call; they are omitted. Calls follow the shape of the dose curve; as a rule, active = well fitted cell-killing curve with a large enough effect; inconclusive = small, poorly fitted or top-dose-only effect, or effect the other way; inactive = flat fitted curve, though single readings scatter. Some of the results follow.

Assay: Cell viability qHTS assay in S16 Pmp22-F2sN cells; also: nearly all actives have a fitted effect of over 65% in size
Conditions: S16 Pmp22-F2sN Schwann cells viability, CellTiter-Glo, 24 h; series mostly up to 57.5 µM; activity change, negative = cytotoxicity: at the top concentration
Summary of the method: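 Used to flag compounds lowering reporter output through toxicity, this quantitative HTS measures ATP-based CellTiter-Glo luminescence in S16 Pmp22-F2sN Schwann cells after 24 h compound exposure at 37C.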
% is scaled to controls: 0 for no effect and ±100 for the full control effect.

| Compound | activity change, negative = cytotoxicity |
| --- | --- |
| CCOc1ccc2nc(NC(=O)c3nc(SCc4ccc(C)cc4)ncc3Cl)sc2c1 | inactive: 9.58% |
| COc1ccc(N2CCN(c3nc4ccccc4n4c(C)nnc34)CC2)cc1 | inactive: 6.02% |
| CN(C(=O)CSc1nc2ccccc2[nH]1)c1ccc(F)cc1 | inactive: -1.71% |
| Cc1ccc(CSc2nncn3c2cc2sccc23)cc1 | inactive: 1.5% |
| CC(C)COc1ccc(C(=O)N2CCC(c3nc4ccccc4s3)CC2)cc1 | inactive: 10.1% |
| Cc1ccc2occ(CC(=O)Nc3c(C(=O)Nc4ccc(Cl)cc4)oc4ccccc34)c2c1 | inactive: 0.806% |
| O=C(CC1N=C2c3ccccc3N=C(SCC(=O)Nc3ccccc3F)N2C1=O)NCc1ccc2c(c1)OCO2 (stereo unspecified) | inactive: 4.74% |
| Cc1cccc(C)c1NC(=O)CN(C)S(=O)(=O)c1ccc2[nH]c3c(c2c1)CCCC3 | inactive: -29.1% |
| Cc1cccc(CSc2nc(=O)c3c(n2C)NC(=O)CC3c2cccc(O)c2)c1 (stereo unspecified) | inactive: 1.84% |
| Cc1ccc2c(c1)sc1nc(-c3cc4cc(Cl)ccc4oc3=O)cn12 | inactive: 0.803% |
| COc1ccccc1NC(=O)Cn1c(=O)n(-c2cccc(Cl)c2)c(=O)c2sc3ccccc3c21 | inactive: 1.46% |
| COc1cc2[nH]c(=O)n(Cc3ccc(C(=O)NCc4ccc(C)cc4)cc3)c(=O)c2cc1OC | inactive: -0.0758% |
| O=C1Cc2cc(S(=O)(=O)N3CCCCC3)cc3c2N1CCC3 | inactive: -0.0795% |
| Cc1ccc(N2CC(NC(=O)Cc3ccc(F)cc3)CC2=O)cc1 (stereo unspecified) | inactive: 4.31% |
| CC1=C(C(=O)Nc2cccc(C(F)(F)F)c2)C2(CCCCCC2)OC1=O | inactive: -6.97% |
| O=C(Cn1c(=O)n(Cc2ccc(C(=O)NCc3ccc4c(c3)OCO4)cc2)c(=O)c2ccccc21)Nc1cccc(Cl)c1 | inactive: 11.5% |
| O=C(NCCc1ccc(Cl)cc1)c1ccc(CS(=O)(=O)Cc2ccc(Cl)cc2)o1 | inactive: -1.02% |
| Cc1noc(-c2ccc(-c3noc(-c4ccccc4)n3)cc2)n1 | inactive: -0.0276% |
| CCC(C(=O)NCc1ccc2c(c1)CCN2C(=O)c1ccc(F)cc1)c1ccccc1 (stereo unspecified) | inactive: 6.56% |
| CC(=O)c1cc(-c2ccccc2)n(CCC(=O)Nc2nc3c(C)cccc3s2)c1C | inactive: 11% |
| CCOc1ccc(CCNC(=O)c2cc(Nc3ccc(C)cc3C)nc3ccccc23)cc1OCC | inactive: 2.11% |

| Compound | activity change, negative = cytotoxicity |
| --- | --- |
| CC1CCN(S(=O)(=O)c2ccc3[nH]cc(C(=O)NCc4ccc(F)cc4)c(=O)c3c2)CC1 | inactive: -6.07% |
| CCOC(=O)c1cc(-c2ccc(C)cc2)n(CCC(=O)Nc2cc(Cl)ccc2C)c1C | inactive: 0.579% |
| Cc1cccc(C)c1NC(=O)Cn1cc(S(=O)(=O)Cc2ccc(F)cc2)c2ccccc21 | inactive: 13.7% |
| Cc1ccc(CNC(=O)CN2C(=O)COc3ccccc32)cc1 | inactive: 1.24% |
| Cc1cc(C)cc(NC(=O)Cn2c(=O)n(CC(=O)NCCc3ccccc3)c(=O)c3ccccc32)c1 | inactive: -3.83% |
| COc1ccc(C(=O)Nc2nnc(SCc3cc(=O)n4cc(Cl)ccc4n3)s2)cc1 | inactive: 12.7% |
| Clc1cccc(-n2ncc3c(N4CCCCCC4)ncnc32)c1 | inactive: 5.23% |
| Cn1c(=O)n(C)c2cc(N3CCCC3)c(NC(=O)Nc3ccccc3)cc21 | inactive: -1.01% |
| CCNc1sc(S(C)(=O)=O)nc1S(=O)(=O)c1ccc(C)cc1 | inactive: -7.01% |
| Cc1ccc(Cn2c(=O)n(Cc3ccccc3Cl)c(=O)c3cccnc32)cc1 | inactive: 16.8% |
| COc1cc(OC)c(NC(=O)c2c(C)oc3ncnc(N4CCCCC4)c23)cc1Cl | inactive: 1.63% |
| Cc1ccc(N2CCN(c3nc4ccccc4c4nnc(C)n34)CC2)c(C)c1 | inactive: -0.754% |
| CCc1ccc(NC(=O)CCNC(=O)Cn2cnc3ccccc3c2=O)cc1 | inactive: 5.27% |
| Cc1ccc(NC(=O)Cn2ncn3c(cc4ccccc43)c2=O)cc1C | inactive: 3.43% |
| Nc1nc(N)c(S(=O)(=O)c2ccccc2)c(Nc2ccc(F)cc2)n1 | inactive: 20.4% |
| Cn1ccc2cc(S(=O)(=O)N3CCN(C(=O)Nc4ccccc4F)CC3)ccc21 | inactive: -3.1% |
| CCOC(=O)N1CCC(NC(=O)c2ccc3c(c2)N(Cc2ccc(Cl)cc2)C(=O)c2ccccc2S3=O)CC1 (stereo unspecified) | inactive: -7.56% |
| Cc1cccc(N(C)S(=O)(=O)c2nnc(NC(=O)C3CCCCC3)s2)c1 | inactive: -0.699% |
| O=C(CSc1nc2ccccc2nc1Cc1ccccc1)N1CCCc2ccccc21 | inactive: -21.6% |
| CCOC(=O)c1cccc(NC(=O)c2sc3nc[nH]c(=O)c3c2C)c1 | inactive: -4.37% |
| COc1cc(-c2ccno2)ccc1S(=O)(=O)N1CCN(c2ccc(F)cc2)CC1 | inactive: -25.4% |

| Compound | activity change, negative = cytotoxicity |
| --- | --- |
| CCc1ccc2occ(CC(=O)N(Cc3ccc(N(C)C)cc3)C3CCS(=O)(=O)C3)c2c1 (stereo unspecified) | inactive: -20.4% |
| CCOC(=O)N1CCc2c(sc3c2c(=O)n(-c2ccc(CC)cc2)c(=O)n3Cc2cc(C)ccc2C)C1 | inactive: 5.11% |
| CCOC(=O)c1c(C)oc2nc(C)nc(Nc3cc(C)ccc3OC)c12 | inactive: 11.5% |
| CCOc1ccccc1NC(=O)C1CCCN(S(=O)(=O)c2cn(C)cn2)C1 (stereo unspecified) | inactive: 5.13% |
| CCOc1ccc(NC(=O)Cn2c(=O)cc(C)c3c(C)nn(-c4ccc(CC)cc4)c32)cc1 | inactive: 22.4% |
| COc1ccc(C(=O)Nc2ccccc2C(=O)OCc2cc(=O)n3nc(C4CC4)sc3n2)cc1 | inactive: -4.51% |
| O=C(C1CCCCC1)N(Cc1cccnc1)c1nc2ccc(F)cc2s1 | inactive: -24.3% |
| CCc1nnc(NC(=O)CSc2nc3c([nH]c4ccccc43)c(=O)n2-c2ccc(OC)cc2)s1 | inactive: -0.973% |
| Cc1ccc(N2CC(C(=O)NCc3nnnn3-c3ccc(C)c(C)c3)CC2=O)cc1 (stereo unspecified) | inactive: 1.23% |
| COC(=O)c1ccc(Cn2c(SCC(=O)Nc3ccc(F)cc3)nc3ccccc32)cc1 | inactive: 3.32% |
| CCOc1ccc(-c2cc(NC(=O)Nc3ccccc3C(F)(F)F)c(C(=O)OC)s2)cc1 | inactive: -0.24% |
| CCCCOc1ccc(C(=O)Nc2ccc3c(c2)CCCN3S(=O)(=O)c2ccc(C)cc2)cc1 | inactive: 0.17% |
| CCCCN(CC)Cc1ccc(CNS(=O)(=O)c2cc3c(cc2Cl)NC(=O)CO3)o1 | inactive: 10.8% |
| CCOc1ccc(NC(=O)Cn2c(=O)n(Cc3ccc(C(=O)NCc4ccc5c(c4)OCO5)cc3)c(=O)c3ccccc32)cc1 | inactive: -28.7% |
| COc1ccc(OC)c(CCNC(=O)CN2C(=O)COc3ccc(S(=O)(=O)N4CCCCCC4)cc32)c1 | inactive: 11.7% |
| CCc1ccc(CNC(=O)c2ccc3c(c2)nc2n3CCCCC2)cc1 | inactive: -0.144% |
| Cc1ccc(C)c(Cn2cnc3ccccc3c2=O)c1 | inactive: 8.8% |
| COc1cccc(CNC(=O)CSc2n[nH]c(-c3ccccc3Cl)n2)c1 | inactive: -1.2% |
| COc1cccc(CNC(=O)CCNS(=O)(=O)c2ccc3c(c2)CCCC(=O)N3)c1 | inactive: 21% |
